GI50 and TGI data for three compounds are collected here from PubChem BioAssay (NCI).

Molecules are shown by their SMILES.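 Grown in 96-well plates, cells were treated for 48 hours with each compound at five concentrations. Insufficient inhibition: endpoint recorded as highest concentration tested. GI50 marks 50% less growth. TGI is the concentration that stops growth completely.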 Some results are limits rather than exact numbers.

For this experiment, the system named is NCI-H322M lung. Put plainly: inhibition of tumour cell growth, NCI panel, 48 h.
Take `Oc1ccc(CSc2nnc(-c3cnccn3)o2)c2cccnc12`: the GI50 was 1510 nM and the TGI is above 100000 nM.
In the same order, the values of `NS(=O)(=O)c1ccc(Nc2nc(Nc3ccccc3)nc(-n3nc(-c4ccccc4)cc3-c3ccccc3)n2)cc1` are 2780 nM and 29900 nM.
On to `Oc1ccc(-c2nnc(SCc3ccc(O)c4ncccc34)o2)cc1`, for which the GI50 is 1430 nM and the TGI was above 52600 nM.
